Results from PubChem BioAssay AID360 (National Center for Advancing Translational Sciences (NCATS), 2006).
Screen size: about 48,000 compounds; about 550 (1.1%) were called active. Another 4% or so got no clear call; they are omitted. Cut-off read from the data, not from the text of the source: active = potency below about 15 µM; inconclusive = mostly about 16 µM to 33 µM; inactive = weaker than that. The list shows a part of the results.

Molecular target: Lysosomal acid glucosylceramidase (Homo sapiens) (UniProt P04062)
UniProt P04062, sequence (P04062 whole entry, looked up): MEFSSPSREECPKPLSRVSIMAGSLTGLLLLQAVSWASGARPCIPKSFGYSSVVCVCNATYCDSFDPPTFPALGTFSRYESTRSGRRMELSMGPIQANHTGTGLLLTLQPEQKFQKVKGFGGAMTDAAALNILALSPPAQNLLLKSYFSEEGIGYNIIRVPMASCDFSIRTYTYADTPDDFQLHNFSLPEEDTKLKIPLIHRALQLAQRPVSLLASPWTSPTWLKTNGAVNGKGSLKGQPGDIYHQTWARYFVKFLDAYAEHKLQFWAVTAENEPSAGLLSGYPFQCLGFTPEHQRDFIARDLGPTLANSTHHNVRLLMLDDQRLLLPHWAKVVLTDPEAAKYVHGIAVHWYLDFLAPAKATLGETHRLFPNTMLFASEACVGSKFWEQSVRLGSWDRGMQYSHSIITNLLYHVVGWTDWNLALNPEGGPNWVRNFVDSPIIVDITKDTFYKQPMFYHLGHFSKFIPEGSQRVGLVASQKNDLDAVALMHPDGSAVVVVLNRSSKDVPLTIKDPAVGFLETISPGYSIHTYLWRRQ
Assay: Glucocerebrosidase;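 note: the screen sought inhibitors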
Settings: purified enzyme, resorufin glucoside fluorescence (screen aimed at inhibitors), 20 min
In short: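 Compounds titrated against 0.2 nM normal enzyme, 30 uM resorufin beta-D-glucopyranoside substrate, citrate/phosphate buffer with taurocholate and tween-20, pH 5.9. Reaction ran 20 min at room temperature; fluorescence (Ex 548/Em 600) gave AC50.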
Potency is the fitted concentration of half-maximal effect.

Potency, inactive:
O=C(Nc1ccc(Br)cc1Cl)Nn1cnnc1 > 76.9 µM
CCOC(=O)N1CC=C2C(C#N)=C(N)C(C#N)(C#N)[C@H](c3ccc(OCC)c(OCC)c3)[C@H]2C1 > 76.9 µM
O=C(c1cccc(OC(F)F)c1)N1CCN(c2ncccn2)CC1 > 76.9 µM
O=C(Nc1ccccc1)c1cccnc1Nc1ccccc1 > 76.9 µM
Cc1nn(CC(=O)Nc2ccc3c(c2)nc(CN2CCCC2)n3C)c(=O)c2ccccc12 > 76.9 µM
COc1ccccc1N1CCN(C(=O)CCc2ccc(S(=O)(=O)NCC(C)C)cc2)CC1 > 76.9 µM
N#CCSc1nc2ccccc2c(=O)n1CCC(=O)NC1CCCCC1 > 76.9 µM
O=C(CSC1=NC(=O)C(Cc2ccccc2)C(=O)N1)NC1CCCCC1 (stereo not given) > 76.9 µM
CCC(C)(C(=O)NC1CCCC1)N(Cc1ccco1)C(=O)c1ccc2c(c1)OCO2 (stereo not given) > 76.9 µM
O=C(O)CC(C(=O)NCc1ccccc1)C1CCCO1 (stereo not given) > 76.9 µM
CC(=O)Nc1nc2ccccc2n1CCN1CCOCC1 > 76.9 µM
CCOC(=O)Cn1nnnc1C(CC)N(Cc1cccs1)Cc1cc2cc(C)ccc2[nH]c1=O (stereo not given) > 76.9 µM
O=c1cc(-c2ccccc2)nc2n1Cc1ccccc1-2 > 76.9 µM
CCOC(=O)c1c(C)oc2c1c(C=NCc1ccccn1)c(O)c1ccccc12 > 76.9 µM
Cc1noc(C)c1CSc1ncnc2ccccc12 > 76.9 µM
CC(C(=O)N(C1CC1)C1(C(=O)Nc2ccccc2)CCCC1)N1C(=O)c2ccccc2C1=O (stereo not given)
Cc1oc2cc3oc(=O)c4c(c3cc2c1C)CCC4 > 76.9 µM
CCN(CC)CCCN1C(=O)C(O)=C(C(=O)c2cccs2)C1c1ccccn1 (stereo not given) > 76.9 µM
CCOc1cccc(C2C(C#N)=C(N)Oc3cc(C)n(Cc4ccccn4)c(=O)c32)c1OCC (stereo not given) > 76.9 µM
CCCCCn1c(SCC#N)nc2cc(C(=O)NCC3CCCO3)ccc2c1=O (stereo not given) > 76.9 µM
COc1cc2c(cc1OC)-c1cc(OCCN3CCOCC3)nc(=O)n1CC2 > 76.9 µM
O=C(OCCCCN1C(=O)c2ccccc2C1=O)c1n[nH]c2ccccc12 > 76.9 µM
CC1CCN(C(=O)CSc2nnc(CNC(=O)c3ccco3)o2)CC1 > 76.9 µM
O=C(NCC(=O)N(c1cccnc1)C(C(=O)NC1CCCC1)c1ccco1)c1cccs1 (stereo not given) > 76.9 µM
CN(C(=O)c1ccccc1Cl)c1ccccc1 > 76.9 µM
CC(=O)N1c2ccccc2C(=O)OC1c1cccnc1 (stereo not given) > 76.9 µM
CCc1ccccc1-n1c(SCC(=O)N2CCCC2)nnc1-c1ccccn1 > 76.9 µM
CC(=O)c1ccccc1OCCCN1CCCCC1 > 76.9 µM
CCOC(=O)c1c(C)[nH]c(C(=O)COC(=O)c2ccc(F)c(S(=O)(=O)N3CCOCC3)c2)c1C > 76.9 µM
CCCCS(=O)(=O)NC1=NCN(Cc2ccco2)CN1 > 76.9 µM
COc1cc2[nH]c(=O)n(CCCCCC(=O)N3CCN(c4ccccn4)CC3)c(=O)c2cc1OC > 76.9 µM
COc1ccc(OC)c(N/C(=N\c2nc(C)cc(C)n2)NC(=O)c2ccco2)c1 > 76.9 µM
Cn1c(=O)cc(SCC(=O)N2CCN(c3ccccn3)CC2)c2ccccc21 > 76.9 µM
O=C(CSc1nccc(=O)[nH]1)Nc1ccc(F)c(Cl)c1 > 76.9 µM
COc1ccccc1NC(=O)CSc1nc2ccccc2n1C(C)=O > 76.9 µM
c1csc(Cc2nn3c(-c4n[nH]c5c4CCC5)nnc3s2)c1 > 76.9 µM
COc1ccc(OC)c(-c2cc(C(=O)Nc3c(C)n(C)n(-c4ccccc4)c3=O)no2)c1 > 76.9 µM
COC(=O)CCc1c(C)nn(-c2ccccc2)c1C > 76.9 µM
O=C(CCCN1C(=O)c2ccccc2C1=O)Nc1sc2c(c1C(=O)NCc1ccco1)CCC2 > 76.9 µM
CCOc1ccccc1C(=O)N(C)Cc1cc2cc(OC)ccc2[nH]c1=O > 76.9 µM
CCOC(=O)c1cccc(NC(=O)c2cnc3ccccc3n2)c1 > 76.9 µM
Cc1cc(C)cc(N2CCN(C(=O)N3CCOCC3)CC2)c1 > 76.9 µM
COc1ccc(Cc2nnc(SCC(=O)NC3CCCCC3)n2C)cc1 > 76.9 µM
COc1cccc(-c2cc(C(=O)NCCN3CCOCC3)no2)c1
O=S(=O)(c1ccc2nc(Cc3ccccc3)[nH]c2c1)N1CCOCC1 > 76.9 µM
CCOC(=O)c1c(CN2CCOCC2)oc2ccc(OC)cc12 > 76.9 µM
Cc1ccc(C(=O)CS(C)(=O)=O)cc1 > 76.9 µM
CCC/C(O)=C1\C(=O)CCCC1=NC(C)C(=O)O (stereo not given) > 76.9 µM
COc1ccccc1-c1nc(C(N)=O)c2[nH]c(=O)n(-c3cccc(C)c3)c2n1 > 76.9 µM
O=C(CS(=O)(=O)Cc1ccccc1)Nc1ccccn1 > 76.9 µM
CN1CCN(CP(=O)(N2CCOCC2)N2CCOCC2)CC1 > 76.9 µM
c1ccc(OCc2nn3c(Cn4cnc5ccccc54)nnc3s2)cc1 > 76.9 µM
COc1ccc(NC(=O)Cc2ccc(Cl)cc2)cc1NC(=O)c1ccco1 > 76.9 µM
CCNC(=O)N1C(=O)C2(OCCO2)c2cc(Br)ccc21
Cc1ccc(N2CC(C(=O)NC3=NCCS3)CC2=O)cc1 (stereo not given) > 76.9 µM
Cc1nc2ccccn2c1/C(O)=C1\C(=O)C(=O)N(CCN(C)C)C1c1cccnc1 (stereo not given) > 76.9 µM
COc1ccc2nc(NC(=O)CSc3nnc(-c4ccoc4C)n3C)sc2c1 > 76.9 µM
CC(=O)N1CCCc2cc(S(=O)(=O)N(C)CCC#N)ccc21 > 76.9 µM
CCN(CC)C(=O)C1CCCN(c2ncnc3c2cnn3-c2cccc(C)c2)C1 (stereo not given) > 15.4 µM
Brc1ccc(-c2csc(/N=C/N3CCOCC3)n2)cc1 > 76.9 µM
O=C(O)C(CC(=O)N1CCOCC1)NCc1ccccc1 (stereo not given) > 76.9 µM
CN1CCc2c(sc3c2c(=O)n(-c2cccc(Cl)c2)c2nncn32)C1 > 76.9 µM
N#Cc1c(C#N)c(-c2ccccc2)n(-c2ccc(C(=O)O)cc2)c1N > 76.9 µM
Cc1ccccc1Oc1ccc(S(=O)(=O)NCCC(=O)O)cc1 > 76.9 µM
CCc1c(C)sc(NC(=O)c2cc(C)on2)c1C#N > 76.9 µM
CCOC(=O)c1sc(NCc2ccco2)c(-c2nc3ccccc3s2)c1N
O=C(Cn1c(=O)c2c(ncn2C2CCCC2)n(Cc2ccccc2)c1=O)N1CCc2ccccc21 > 76.9 µM
COc1ccc(C2C(C(=O)N3CCCCC3)CCC(=O)N2c2cc(OC)c(OC)c(OC)c2)cc1 (stereo not given) > 76.9 µM
Cc1ccnc(N2CCC(C(=O)Nc3ccc4c(c3)CCC4)CC2)n1 > 76.9 µM
O=C(CSc1nnc(SCc2ccc(Cl)cc2)s1)N1CCN(C(=O)c2ccco2)CC1 > 76.9 µM
COc1ccccc1OCc1nnc(SCCN2CCOCC2)o1 > 76.9 µM
Cc1cc2oc(=O)cc(CN3CCN(C/C=C/c4ccccc4)CC3)c2cc1O > 76.9 µM
CS(=O)(=O)N(CC(=O)N1CCN(c2cccc(Cl)c2)CC1)c1cccc(F)c1 > 76.9 µM
O=C(CCS(=O)(=O)c1cccs1)NC1CCCCCC1 > 76.9 µM
O=C(Nc1nnc(C2CCCO2)s1)c1cccs1 (stereo not given) > 76.9 µM
COc1ccc(-c2nnc(SCC(=O)Nc3ccccc3OC)o2)cc1 > 76.9 µM
CCn1cc(C(=O)OCC(=O)OC2CC(C)CCC2C(C)C)c(=O)c2ccc(C)nc21 (stereo not given) > 76.9 µM
O=C(CCC(=O)c1cccs1)Nc1nnc(C2CC2)s1 > 76.9 µM
COc1ccc(NC2CS(=O)(=O)CC2OC(=O)c2ccc(F)cc2)cc1 (stereo not given) > 76.9 µM
O=C(O)CCC(=O)OCC1CCCO1 (stereo not given) > 76.9 µM
O=C(NC1CCCCC1)N1CCc2[nH]c3ccccc3c2C1 > 76.9 µM
CCC(=O)Nc1ccc(OC)cc1OC > 76.9 µM
Cn1c(=O)c2c(nc(Br)n2CC(=O)C23CC4CC(CC(C4)C2)C3)n(C)c1=O > 76.9 µM
O=C1c2ccccc2C2NC(=O)C3(CCCCC3)N12 (stereo not given) > 76.9 µM
O=C(OCc1c(F)cccc1Cl)c1cnccn1 > 76.9 µM
Cc1sc2nc(C(C)C)nc(SCC(=O)N3CCN(C(=O)c4ccco4)CC3)c2c1C > 76.9 µM
Cn1c(SCC(=O)c2ccccc2)nnc1-c1cnccn1 > 76.9 µM
COCc1[nH]nc2c1C(c1cc(OC)c(O)c(OC)c1)C(C#N)=C(N)O2 (stereo not given) > 76.9 µM
Cc1ccc(-c2csc3nnc(SCc4csc(C)n4)n23)cc1 > 76.9 µM
N#CCCN(CCC#N)C(=O)c1ccc2c(c1)OCO2 > 76.9 µM
